The values that follow come from patent publication US10299477B2 (priority 2015, dated 2019).

The subject of the experiment is Colletotrichum orbiculare. Conditions: 250 ppm, sprayed 2.5 ml/pot before inoculation; evaluated 6-10 days after inoculation.

Turning to `CCn1c(-c2c(F)cc(F)cc2F)c(-c2ccc(F)cc2Cl)ccc1=O` [Compound 575], the “Test H (control value class, anthracnose on cucumber)” value (“Test H” for short) was “H (H shows more than 50% of control values)”. To `Cn1c(-c2c(F)cc(F)cc2F)c(-c2ccc(F)cc2Cl)ccc1=O` [Compound 576] belongs “H (H shows more than 50% of control values)”. The entry for `CCn1c(-c2c(F)cc(F)cc2F)c(-c2ccc(F)cc2Cl)cc(Cl)c1=O` [Compound 577] is “H (H shows more than 50% of control values)”; for `CCn1c(-c2c(F)cc(F)cc2F)c(-c2ccc(F)cc2Cl)cc(Br)c1=O` [Compound 578] it is “H (H shows more than 50% of control values)”; for `CCOc1cc(F)c(-c2c(-c3cc(F)cc(F)c3F)ccc(=O)n2CC)c(F)c1` [Compound 579] it is “H (H shows more than 50% of control values)”. The entry for `CCOc1cc(F)c(-c2c(-c3cc(F)cc(F)c3F)cc(Cl)c(=O)n2CC)c(F)c1` [Compound 580] is “H (H shows more than 50% of control values)”; for `CCN1C(=S)CCC(c2cc(OC)ccc2Cl)=C1c1c(F)cccc1F` [Compound 581] it is “H (H shows more than 50% of control values)”; for `CCn1c(-c2c(F)cccc2F)c(-c2cc(OC)ccc2Cl)ccc1=O` [Compound 582] it is “H (H shows more than 50% of control values)”.

For the molecule `CCN1C(=O)CCC(c2cc(F)cc(F)c2Cl)=C1c1c(F)cc(F)cc1F` [Compound 583], the “Test H” value is “H (H shows more than 50% of control values)”. On to `CCn1c(-c2c(F)cc(F)cc2F)c(-c2cc(F)cc(F)c2Cl)ccc1=O` [Compound 584], for which the “Test H” value is on record as “H (H shows more than 50% of control values)”.

Consider `CCn1c(-c2c(F)cc(F)cc2F)c(-c2cc(F)cc(F)c2Cl)cc(Cl)c1=O` [Compound 585], for which the “Test H” value is “H (H shows more than 50% of control values)”. The entry for `Cn1c(-c2c(F)cc(F)cc2F)c(-c2cc(F)cc(F)c2Cl)cc(Cl)c1=O` [Compound 587] is “H (H shows more than 50% of control values)”; for `CCn1c(-c2c(F)cc(OC)cc2F)c(-c2cccc(F)c2F)ccc1=O` [Compound 588] it is “H (H shows more than 50% of control values)”; for `CCn1c(-c2c(F)cc(OC)cc2F)c(-c2cccc(F)c2F)cc(Br)c1=O` [Compound 589] it is “H (H shows more than 50% of control values)”. To `CCn1c(-c2c(F)cc(OC)cc2F)c(-c2cccc(F)c2F)cc(Cl)c1=O` [Compound 590] belongs “H (H shows more than 50% of control values)”; to `CCOc1cc(F)c(-c2c(-c3ccccc3F)ccc(=O)n2C)c(F)c1` [Compound 591], “H (H shows more than 50% of control values)”; to `CCn1c(-c2c(F)cc(OC)cc2F)c(-c2ccc(F)cc2Cl)cc(Cl)c1=O` [Compound 593], “H (H shows more than 50% of control values)”. With `CCn1c(-c2c(F)cc(F)cc2F)c(-c2ccc(F)cc2Cl)cc(C)c1=O` [Compound 594], the “Test H” value is “H (H shows more than 50% of control values)”. The entry for `CCOc1cc(F)c(-c2c(-c3ccc(F)cc3Cl)cc(Cl)c(=O)n2CC)c(F)c1` [Compound 595] is “H (H shows more than 50% of control values)”; for `Cn1c(-c2c(F)cc(F)cc2F)c(-c2ccc(F)cc2Cl)cc(Cl)c1=O` [Compound 596] it is “H (H shows more than 50% of control values)”. To `Cn1c(-c2c(F)cc(F)cc2F)c(-c2ccc(F)cc2Cl)cc(Br)c1=O` [Compound 597] belongs “H (H shows more than 50% of control values)”. The entry for `CCOc1cc(F)c(-c2c(-c3ccccc3F)cc(Cl)c(=O)n2C)c(F)c1` [Compound 598] is “H (H shows more than 50% of control values)”; for `CCn1c(-c2c(F)cc(OC)cc2F)c(-c2ccc(F)cc2Cl)cc(C)c1=O` [Compound 599] it is “H (H shows more than 50% of control values)”; for `COc1cc(F)c(-c2c(-c3ccc(F)cc3Cl)cc(Cl)c(=O)n2C)c(F)c1` [Compound 600] it is “H (H shows more than 50% of control values)”. Regarding `CCn1c(-c2c(F)cc(Cl)cc2F)c(-c2cc(F)ccc2Cl)ccc1=O` [Compound 601], the “Test H” value is “H (H shows more than 50% of control values)”. To `CCn1c(-c2c(F)cc(Cl)cc2F)c(-c2cc(F)ccc2Cl)cc(Cl)c1=O` [Compound 602] belongs “H (H shows more than 50% of control values)”; to `Cn1c(-c2c(F)cc(Cl)cc2F)c(-c2cc(F)ccc2Cl)ccc1=O` [Compound 604], “H (H shows more than 50% of control values)”; to `O=c1ccc(-c2cc(F)cc(F)c2Cl)c(-c2c(F)cc(F)cc2F)n1CC(F)F` [Compound 607], “H (H shows more than 50% of control values)”.

Take `O=c1c(Cl)cc(-c2cc(F)cc(F)c2Cl)c(-c2c(F)cc(F)cc2F)n1CC(F)F` [Compound 608]: the “Test H” value is recorded as “H (H shows more than 50% of control values)”. To `CCn1c(-c2c(F)cc(OC)cc2F)c(-c2cccc(F)c2F)cc(C)c1=O` [Compound 610] belongs “H (H shows more than 50% of control values)”; to `CCOc1cc(F)c(-c2c(-c3cccc(F)c3F)cc(C)c(=O)n2CC)c(F)c1` [Compound 611], “H (H shows more than 50% of control values)”; to `CCOc1cc(F)c(-c2c(-c3ccc(F)cc3Cl)ccc(=O)n2C)c(F)c1` [Compound 612], “H (H shows more than 50% of control values)”. In the case of `Cc1cc(-c2ccc(F)cc2Cl)c(-c2c(F)cc(F)cc2F)n(C)c1=O` [Compound 613], the “Test H” value is “H (H shows more than 50% of control values)”.

`CCN1C(=O)CCC(c2cc(OC)cc(F)c2Cl)=C1c1c(F)cc(F)cc1F` [Compound 614]: the “Test H” value is reported as “H (H shows more than 50% of control values)”. To `CCn1c(-c2c(F)cc(F)cc2F)c(-c2cc(OC)cc(F)c2Cl)ccc1=O` [Compound 615] belongs “H (H shows more than 50% of control values)”.

As to `CCOc1cc(F)c(-c2c(-c3ccc(F)cc3Cl)cc(Cl)c(=O)n2C)c(F)c1` [Compound 616], the “Test H” value is listed as “H (H shows more than 50% of control values)”. The entry for `CCn1c(-c2c(F)cc(F)cc2F)c(-c2cc(OC)cc(F)c2Cl)cc(Cl)c1=O` [Compound 617] is “H (H shows more than 50% of control values)”; for `CCn1c(-c2c(F)cc(F)cc2F)c(-c2cccc(OC)c2Cl)ccc1=O` [Compound 618] it is “H (H shows more than 50% of control values)”. The entry for `CCn1c(-c2c(F)cc(F)cc2F)c(-c2cccc(OC)c2Cl)cc(Cl)c1=O` [Compound 619] is “H (H shows more than 50% of control values)”; for `CCn1c(-c2c(F)cc(F)cc2F)c(-c2cccc(OC)c2Cl)cc(Br)c1=O` [Compound 620] it is “H (H shows more than 50% of control values)”. `COc1cc(F)c(-c2c(-c3ccc(F)cc3Cl)cc(C)c(=O)n2C)c(F)c1` [Compound 621]: the “Test H” value is reported as “H (H shows more than 50% of control values)”. To `CCN1C(=O)CCC(c2ccc(Br)cc2Cl)=C1c1c(F)cc(F)cc1F` [Compound 622] belongs “H (H shows more than 50% of control values)”; to `CCn1c(-c2c(F)cc(OC)cc2F)c(-c2cc(OC)cc(F)c2Cl)ccc1=O` [Compound 623], “H (H shows more than 50% of control values)”; to `CCn1c(-c2c(F)cc(F)cc2F)c(-c2ccc(Br)cc2Cl)ccc1=O` [Compound 624], “H (H shows more than 50% of control values)”.

For `CCn1c(-c2c(F)cc(F)cc2F)c(-c2ccc(C)cc2Cl)ccc1=O` [Compound 626], the “Test H” value is “H (H shows more than 50% of control values)”.

As for `CCn1c(-c2c(F)cc(OC)cc2F)c(-c2cc(OC)cc(F)c2Cl)cc(Cl)c1=O` [Compound 627], the “Test H” value is “H (H shows more than 50% of control values)”.

Consider `CCn1c(-c2c(F)cc(F)cc2F)c(-c2ccc(C)cc2Cl)cc(Cl)c1=O` [Compound 628], for which the “Test H” value is given as “H (H shows more than 50% of control values)”.

As for `CCn1c(-c2c(F)cccc2F)c(-c2ccc(F)cc2F)cc(Cl)c1=O` [Compound 630], the “Test H” value is “H (H shows more than 50% of control values)”.

For the molecule `CCn1c(-c2c(F)cc(F)cc2F)c(-c2cccc(OC)c2Cl)cc(C)c1=O` [Compound 632], the “Test H” value is “H (H shows more than 50% of control values)”.

Regarding `CCn1c(-c2c(F)cc(OC)cc2F)c(-c2cccc(OC)c2Cl)ccc1=O` [Compound 633], the “Test H” value is listed as “H (H shows more than 50% of control values)”. Consider `CCOc1cc(F)c(-c2c(-c3cccc(OC)c3Cl)ccc(=O)n2CC)c(F)c1` [Compound 634], for which the “Test H” value was “H (H shows more than 50% of control values)”. The entry for `CCn1c(-c2c(F)cc(F)cc2F)c(-c2cc(F)c(F)cc2F)ccc1=O` [Compound 635] is “H (H shows more than 50% of control values)”; for `CCn1c(-c2c(F)cc(F)cc2F)c(-c2cc(F)c(F)cc2F)cc(Cl)c1=O` [Compound 636] it is “H (H shows more than 50% of control values)”.
